# Results from the supplement of paper PMC4723716.
# ± gives the uncertainty stated by the source. In all, about 9,900 compounds were measured (“viability index relative to DMSO control”: median about 1, lowest 2% from about 0.85 on). The list shows a part of the results.
# Tested on: Plasmodium falciparum NF54 stage V gametocytes
# Assay: viability index relative to DMSO control (fraction); higher = less gametocyte killing
# Settings: 2.5 µM, incubation time: 72 h
# Outline: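 Compound at 2.5 µM was incubated for 72 hr at 37°C under low oxygen with P. falciparum NF54 stage V gametocytes (0.75% gametocytemia, 1.25% hematocrit, 10 µl, serum-free screening medium) in 1,536-well plates. Staining used 3 µl of 2.5 µM MitoTracker Red CMXRos plus 0.13% saponin for one to two hours, and red particles of 20–70 µm2 were counted in one imaged field per well. Each viability index is that count relative to the plate mean of solvent-only wells.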
# [1] = library set: Broad Institute DOS
Compound,viability index [1],viability index (library set: Broad Institute Blood Stage)
COc1ccc2c3c([C@@H](CO)N(Cc4ccc(Cl)cc4)C[C@]33CN(C3)C(=O)NC(C)C)n(C)c2c1,0.998 ± 0.079,–
COc1cccc(CNC(=O)C[C@@H]2CC[C@H]3[C@@H](COc4ccc(NS(=O)(=O)c5ccccc5F)cc4C(=O)N3C)O2)c1,0.979 ± 0.099,–
CO[C@H]1CN(C)C(=O)c2cc(NC(=O)C3CCCCC3)ccc2OC[C@H](C)N(C(=O)c2ccccc2)C[C@H]1C,1.04 ± 0.084,–
COc1cccc(CN2C[C@@]3(C2)CN([C@H](CO)c2[nH]c4cc(OC)ccc4c32)S(C)(=O)=O)c1,0.954 ± 0.15,–
CCCC(=O)N1C[C@@]2(C1)CN([C@@H](CO)c1[nH]c3cc(OC)ccc3c21)C(=O)c1ccc(F)cc1,1.04 ± 0.072,–
CCCNC(=O)[C@H]1[C@H](CO)[C@H]2Cn3c(ccc(C4=CCCC4)c3=O)[C@H]2N1C(=O)c1cnccn1,1.06 ± 0.05,–
COc1ccccc1NC(=O)N1C[C@@H](O)COC[C@H]2O[C@@H](CC(=O)N3CCC(Cc4ccccc4)CC3)CC[C@@H]21,1.065 ± 0.0029,–
CO[C@H](CN(C)CC1CCOCC1)[C@@H](C)CN(C(=O)Nc1ccc(F)cc1)[C@H](C)CO,1.04 ± 0.052,–
COc1ccc(S(=O)(=O)N(C)C[C@H]2OCCCC[C@H](C)Oc3ccc(NC(=O)Cc4ccccc4)cc3C(=O)N([C@H](C)CO)C[C@H]2C)cc1,0.9061 ± 0.001,–
COc1ccc2c3c([C@H](CO)N(C[C@]33CCN(CC3)C(=O)Nc3c(C)noc3C)C(=O)Nc3ccc(F)cc3)n(C)c2c1,1.06 ± 0.082,–
CCC(=O)N1C[C@H]2[C@@H](c3ccccc31)[C@@H](CO)N2C(=O)CC1CC1,0.974 ± 0.11,–
COc1ccccc1NC(=O)N1[C@@H](C#N)[C@@H](c2ccccc2)[C@@H]1CO,1.01 ± 0.17,–
C[C@H](CO)N1C[C@H](C)[C@H](CN(C)S(=O)(=O)c2ccc(C#N)cc2)OCc2ccccc2-c2c(n(C)c3ccccc23)C1=O,–,1.01 ± 0.03
Cc1noc(C)c1NC(=O)N1C[C@H](O)COC[C@H]2O[C@H](CC(=O)N[C@@H]3CCN(Cc4ccccc4)C3)CC[C@@H]21,0.974 ± 0.027,–
C/C=C/c1ccc([C@H]2[C@@H](CO)N(CC3CCCC3)[C@H]2CNS(C)(=O)=O)cc1,1.03 ± 0.099,–
CN1C(=O)c2cc(NC(=O)c3cscn3)ccc2OC[C@@H]2O[C@@H](CC(=O)N3CCOCC3)CC[C@@H]21,1.062 ± 0.0077,–
CNC(=O)C[C@H]1CC[C@H]2[C@@H](COc3ccc(NC(=O)c4ccccc4F)cc3C(=O)N2C)O1,1.08 ± 0.095,–
CCNC(=O)C[C@@H]1CC[C@@H]2[C@H](COC[C@@H](O)CN2C(=O)C2CCCC2)O1,1.03 ± 0.034,–
COc1ccc(S(=O)(=O)Nc2ccc3c(c2)C(=O)N([C@@H](C)CO)C[C@H](C)[C@H](CN(C)C(=O)Nc2c(C)noc2C)OCCCC[C@H](C)O3)cc1,1.04 ± 0.022,–
C[C@H]1CN([C@@H](C)CO)C(=O)c2ccccc2-c2ccccc2CO[C@H]1CN(C)C(=O)Nc1ccnc(N2CCOCC2)c1,1.02 ± 0.036,–
C/C=C/c1ccc2c(c1)[C@H]1[C@H](CCN1Cc1ccc(F)cc1)[C@H](CO)N2,1.08 ± 0.041,–
CC(=O)N1CC[C@@H]2[C@@H](CO)Nc3ccc(-c4ccccc4)cc3[C@@H]21,1.04 ± 0.063,–
CO[C@@H]1CN(C)C(=O)c2cc(NC(=O)c3ccc(F)cc3)ccc2OC[C@@H](C)N(C(=O)CC2CC2)C[C@H]1C,1.07 ± 0.035,–

Compound,viability index [1],viability index (library set: Broad Institute Blood Stage)
CN1c2ccc(-c3cccc(C#N)c3)cc2[C@H]2[C@H](CCN2C(=O)CN2CCOCC2)[C@H]1CO,1.06 ± 0.076,–
O=C(c1cnccn1)N1CC(=O)N2[C@H](CO)[C@@H](c3ccc(-c4cccc(F)c4)cc3)[C@@H]2C1,0.99 ± 0.047,–
COc1ccc(S(=O)(=O)Nc2ccc3c(c2)CC(=O)N([C@@H](C)CO)C[C@@H](C)[C@@H](CN(C)C(=O)Nc2c(C)noc2C)O3)cc1,0.906 ± 0.067,–
O=C(C[C@@H]1C[C@H]2c3cc(NC(=O)C4CCOCC4)ccc3O[C@H]2[C@@H](CO)O1)NCc1cccnc1,1.06 ± 0.047,–
CO[C@H](CN(C)CC1CCOCC1)[C@H](C)CN(C(=O)Nc1ccc(F)cc1)[C@H](C)CO,0.993 ± 0.058,–
COc1ccccc1C(=O)Nc1ccc2c(c1)C(=O)N(C)C[C@H](OC)[C@H](C)CN(C(C)=O)[C@H](C)CO2,1.08 ± 0.017,–
COc1cccc(-c2ccc3n(c2=O)C[C@H]2[C@H](CO)[C@@H](C(=O)NC4Cc5ccccc5C4)N[C@@H]32)c1,1.12 ± 0.021,–
COCC(=O)NC[C@@H]1[C@@H](c2ccccc2)[C@@H](CO)N1C(=O)c1ccccc1,0.9668 ± 0.0031,–
CO[C@@H]1CN(C)C(=O)c2ccc(NC(C)=O)cc2OC[C@H](C)N(C(=O)c2cnccn2)C[C@@H]1C,1.15 ± 0.013,–
CN(C)C(=O)c1cccc(-c2ccccc2[C@H]2[C@@H](C#N)N(C(=O)C3CCCCC3)[C@@H]2CO)c1,1.13 ± 0.062,–
CN1CCN(C(=O)C[C@@H]2CC[C@@H]3[C@H](COC[C@@H](O)CN3Cc3cccc(-c4ccncc4)c3)O2)CC1,1.06 ± 0.083,–
O=C(C[C@H]1C=C[C@@H](NC(=O)c2ccc3c(c2)OCO3)[C@H](CO)O1)NC1Cc2ccccc2C1,0.941 ± 0.069,–
O=C(O)[C@@H]1[C@@H](CO)[C@@H]2Cn3c(ccc(C4=CCCCC4)c3=O)[C@@H]2N1Cc1ccc2c(c1)OCO2,1.04 ± 0.042,–
O=C(NC1CCCCC1)[C@H]1[C@H](CO)[C@H]2Cn3c(cccc3=O)[C@@H]1N2Cc1cccnc1,1.09 ± 0.021,–
C[C@@H]1CN([C@@H](C)CO)C(=O)c2cccc(NC(=O)c3ccc(-c4nccs4)cc3)c2O[C@@H]1CN(C)C(=O)Nc1ccc(C(F)(F)F)cc1,0.556 ± 0.084,–
O=C(O)[C@H]1[C@H](CO)[C@H]2Cn3c(ccc(-c4cccc(F)c4)c3=O)[C@H]2N1C(=O)c1ccccn1,1.03 ± 0.16,–
O=C(Nc1ccc(C(F)(F)F)cc1)N[C@@H]1C=C[C@H](CC(=O)N2CCCCC2)O[C@@H]1CO,1.15 ± 0.12,–
COc1ccc(CNC(=O)C[C@H]2CC[C@@H](NC(=O)CN(C)C)[C@@H](CO)O2)cc1,1.079 ± 0.0035,–
CCCNC(=O)N1[C@H](CO)[C@@H]2c3ccccc3N(C(=O)c3ccncc3)C[C@@H]21,0.997 ± 0.076,–
COc1ccc2c3c([C@@H](CO)N(C[C@]33CN(C3)C(=O)Nc3cccc(F)c3)C(=O)C3CCOCC3)n(C)c2c1,1.06 ± 0.05,–
CCS(=O)(=O)N[C@@H]1CC[C@@H](CC(=O)N2CCCCC2)O[C@@H]1CO,1.02 ± 0.036,–
COc1ccc2c3c([C@H](CO)NC[C@]33CCN(Cc4cc(on4)-c4ccccc4)CC3)n(C)c2c1,0.893 ± 0.015,–
C[C@@H]1CN([C@H](C)CO)C(=O)c2ccccc2-c2ccccc2CO[C@@H]1CN(C)S(=O)(=O)Cc1ccccc1,1.06 ± 0.17,–

Compound,viability index [1],viability index (library set: Broad Institute Blood Stage)
C/C=C/c1ccc2n(c1=O)C[C@H]1[C@H](CO)[C@@H](C(=O)N3CCOCC3)N(Cc3ccccc3)[C@@H]21.C/C=C\c1ccc2n(c1=O)C[C@H]1[C@H](CO)[C@@H](C(=O)N3CCOCC3)N(Cc3ccccc3)[C@@H]21,1.04 ± 0.072,–
CCS(=O)(=O)N1C[C@@]2(C1)CN(Cc1ccc3OCOc3c1)[C@@H](CO)c1[nH]c3cc(OC)ccc3c21,0.971 ± 0.11,–
CC(C)CC#Cc1ccc([C@@H]2[C@@H](CO)N3CCCCN(C(=O)Nc4ccccc4)C[C@H]23)cc1,0.844 ± 0.032,–
Cc1ccc(S(=O)(=O)N(C)C[C@@H]2Oc3c(NS(C)(=O)=O)cccc3C(=O)N([C@H](C)CO)C[C@@H]2C)cc1,0.939 ± 0.13,–
CN1C(=O)c2cc(NS(=O)(=O)c3ccccc3F)ccc2OC[C@H]2O[C@H](CC(=O)NC3Cc4ccccc4C3)CC[C@@H]21,0.888 ± 0.013,–
CNC[C@@H]1OCCCC[C@H](C)Oc2ccc(NC(=O)Nc3ccc(OC)cc3)cc2C(=O)N([C@@H](C)CO)C[C@H]1C,1.12 ± 0.033,–
CC(=O)N1[C@@H](CO)[C@@H]2c3ccccc3N(C(=O)c3ccc(F)cc3)C[C@@H]21,0.965 ± 0.13,–
Cn1cnc(S(=O)(=O)N[C@@H]2CC[C@H](CC(=O)NCC3CCCCC3)O[C@H]2CO)c1,1.04 ± 0.054,–
CO[C@@H]1CN(C)C(=O)c2cc(NS(=O)(=O)c3ccc(C)cc3)ccc2OC[C@@H](C)N(Cc2ccccn2)C[C@H]1C,1.1 ± 0.092,–
O=C(C[C@H]1C=C[C@@H](NS(=O)(=O)c2ccc(F)cc2)[C@@H](CO)O1)N1CCc2ccccc2C1,0.974 ± 0.075,–
C[C@@H]1CN([C@@H](C)CO)C(=O)c2ccccc2-c2ccccc2CO[C@@H]1CN(C)C(=O)[C@@H]1CCCN1C,0.936 ± 0.093,–
CCNC(=O)[C@H]1[C@H](CO)[C@H]2Cn3c(ccc(/C=C/c4ccccc4)c3=O)[C@@H]1N2C(=O)c1ccncc1,0.98739 ± 0.00081,–
COc1ccccc1S(=O)(=O)N(C)C[C@H]1OCc2ccccc2-c2ccccc2C(=O)N([C@@H](C)CO)C[C@@H]1C,0.963 ± 0.048,–
Cc1noc(C)c1NC(=O)N(C)C[C@H]1Oc2cc(C#CCN(C)C)ccc2S(=O)(=O)N([C@@H](C)CO)C[C@@H]1C,1.015 ± 0.007,–
C/C=C/c1ccc([C@H]2[C@@H](CO)N(c3nc(CC)cs3)[C@H]2C#N)cc1,1.09 ± 0.035,–
CCCC(=O)N1CC[C@@]2(CC1)CN([C@@H](CO)c1c2c2ccc(OC)cc2n1C)C(C)=O,1.03 ± 0.076,–
O=C(NCC[C@@H]1CC[C@@H](NC(=O)c2ccncc2)[C@@H](CO)O1)Nc1ccc(Cl)cc1,1.03 ± 0.098,–
O=C(O)C[C@@H]1CC[C@H]2[C@@H](COC[C@H](O)CN2S(=O)(=O)c2ccc(Oc3ccccc3)cc2)O1,1.067 ± 0.0063,–
COc1ccc(-c2ccc([C@@H]3[C@@H]4CN(C(=O)c5cnccn5)C[C@H]3N4)cc2)cc1,0.958 ± 0.052,–
C[C@H]1CN([C@@H](C)CO)C(=O)CCCn2nncc2CO[C@@H]1CN(C)Cc1cccc(C(F)(F)F)c1,1.012 ± 0.0049,–
COc1ccccc1-c1ccc2c(c1)O[C@@H](CN(C)CC1CCOCC1)[C@@H](C)CN([C@H](C)CO)S2(=O)=O,1.08 ± 0.046,–
O=C(NC1CCCC1)N1[C@@H]2CNC[C@H]1[C@@H]2c1ccc(-c2cccnc2)cc1,0.973 ± 0.07,–
N#C[C@@H]1[C@H](c2ccccc2C2=CCCCC2)[C@H](CO)N1C(=O)CN1CCOCC1,1.17 ± 0.13,–
